# According to the supplement of paper PMC8728848:
# This is one part of the list.
# What was measured:
# Test in all cases: glycan array binding signal (z-score within array); higher = stronger binding
# Conditions in all cases: glycan notation: IUPAC condensed, linker removed
# [1] = biological target: GlcNAc(b1-3)Gal(b1-4)GlcNAc(b1-3)Gal(b1-4)GlcNAc(b1-3)Gal(b1-4)GlcNAc(b1-3)Gal(b1-4)GlcNAc(b1-2)[GlcNAc(b1-3)Gal(b1-4)GlcNAc(b1-3)Gal(b1-4)GlcNAc(b1-3)Gal(b1-4)GlcNAc(b1-3)Gal(b1-4)GlcNAc(b1-6)]Man(a1-6)[GlcNAc(b1-3)Gal(b1-4)GlcNAc(b1-3)Gal(b1-4)GlcNAc(b1-3)Gal(b1-4)GlcNAc(b1-3)Gal(b1-4)GlcNAc(b1-2)Man(a1-3)]Man(b1-4)GlcNAc(b1-4)[Fuc(a1-6)]GlcNAc
# Procedure, shortened: (§1)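 Arrays were curated from the Consortium for Functional Glycomics database, 3228 in total, and kept only where the protein sequence was available. Binding is expressed as a within-array Z-score. This score was averaged across arrays of the same protein sequence at different concentrations or buffers and across linkers, and negative values can be read as non-binding.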
# [2] = biological target: GlcNAc(b1-3)Gal(b1-4)GlcNAc(b1-3)Gal(b1-4)GlcNAc(b1-3)GalNAc
# Procedure, shortened: as §1
# [3] = biological target: GlcNAc(b1-3)Gal(b1-4)GlcNAc(b1-3)GalNAc
# Procedure, shortened: as §1
# [4] = biological target: GlcNAc(b1-3)Gal(b1-4)GlcNAc(b1-3)[GlcNAc(b1-3)Gal(b1-4)GlcNAc(b1-3)]GalNAc
# Procedure, shortened: as §1
# [5] = biological target: GlcNAc(b1-3)Gal(b1-4)GlcNAc(b1-6)[Gal(b1-3)]GalNAc
# Procedure, shortened: as §1
# [6] = biological target: GlcNAc(b1-3)Gal(b1-4)GlcNAc(b1-6)[GlcNAc(b1-3)Gal(b1-3)]GalNAc
# Procedure, shortened: as §1
# [7] = biological target: GlcNAc(b1-3)Gal(b1-4)GlcNAc(b1-6)[GlcNAc(b1-3)]Gal(b1-4)GlcNAc
# Procedure, shortened: as §1
# [8] = biological target: GlcNAc(b1-3)GalNAc
# Procedure, shortened: as §1
# [9] = biological target: GlcNAc(b1-3)Man
# Procedure, shortened: as §1
# [10] = biological target: GlcNAc(b1-3)[GlcNAc(b1-4)][GlcNAc(b1-6)]GlcNAc
# Procedure, shortened: as §1
# [11] = biological target: GlcNAc(b1-3)[GlcNAc(b1-6)]Gal(b1-4)GlcNAc
# Procedure, shortened: as §1
# [12] = biological target: GlcNAc(b1-3)[GlcNAc(b1-6)]GalNAc
# Procedure, shortened: as §1
# [13] = biological target: GlcNAc(b1-4)Gal(b1-4)GlcNAc
# Procedure, shortened: as §1
# [14] = biological target: GlcNAc(b1-4)GlcNAc
# Procedure, shortened: as §1
# [15] = biological target: GlcNAc(b1-4)GlcNAc(b1-4)GlcNAc
# Procedure, shortened: as §1
# [16] = biological target: GlcNAc(b1-4)GlcNAc(b1-4)GlcNAc(b1-4)GlcNAc(b1-4)GlcNAc
# Procedure, shortened: as §1
# [17] = biological target: GlcNAc(b1-4)GlcNAc(b1-4)GlcNAc(b1-4)GlcNAc(b1-4)GlcNAc(b1-4)GlcNAc
# Procedure, shortened: as §1
# [18] = biological target: GlcNAc(b1-4)[GlcNAc(b1-6)]GalNAc
# Procedure, shortened: as §1
# [19] = biological target: GlcNAc(b1-6)Gal(b1-4)GlcNAc
# Procedure, shortened: as §1
# [20] = biological target: GlcNAc(b1-6)GalNAc
# Procedure, shortened: as §1
# [21] = biological target: GlcNAc6S(b1-3)Gal(b1-4)GlcNAc
# Procedure, shortened: as §1
# [22] = biological target: Kdn(a2-3)Gal(b1-3)GalNAc
# Procedure, shortened: as §1
# [23] = biological target: Kdn(a2-3)Gal(b1-3)GlcNAc
# Procedure, shortened: as §1
# [24] = biological target: Kdn(a2-3)Gal(b1-4)Glc
# Procedure, shortened: as §1
# [25] = biological target: Kdn(a2-3)Gal(b1-4)GlcNAc
# Procedure, shortened: as §1
# [26] = biological target: Kdn(a2-3)Gal(b1-4)[Fuc(a1-3)]GlcNAc
# Procedure, shortened: as §1
# [27] = biological target: Kdn(a2-6)Gal(b1-4)GlcNAc
# Procedure, shortened: as §1
# [28] = biological target: Man(a1-2)Man(a1-2)Man(a1-3)Man
# Procedure, shortened: as §1
# [29] = biological target: Man(a1-2)Man(a1-2)Man(a1-6)[Man(a1-3)]Man
# Procedure, shortened: as §1
# [30] = biological target: Man(a1-2)Man(a1-3)Man
# Procedure, shortened: as §1
# [31] = biological target: Man(a1-2)Man(a1-3)[Man(a1-2)Man(a1-6)]Man
# Procedure, shortened: as §1
# [32] = biological target: Man(a1-2)Man(a1-3)[Man(a1-2)Man(a1-6)]Man(a1-6)[Man(a1-2)Man(a1-2)Man(a1-3)]Man
# Procedure, shortened: as §1
# [33] = biological target: Man(a1-2)Man(a1-3)[Man(a1-2)Man(a1-6)]Man(a1-6)[Man(a1-2)Man(a1-2)Man(a1-3)]Man(b1-4)GlcNAc(b1-4)GlcNAc
# Procedure, shortened: as §1
# [34] = biological target: Man(a1-2)Man(a1-3)[Man(a1-6)]Man(a1-6)[Man(a1-2)Man(a1-3)]Man(b1-4)GlcNAc(b1-4)GlcNAc
# Procedure, shortened: as §1
# [35] = biological target: Man(a1-2)Man(a1-6)[Man(a1-3)]Man(a1-6)[Man(a1-2)Man(a1-2)Man(a1-3)]Man
# Procedure, shortened: as §1
# [36] = biological target: Man(a1-2)Man(a1-6)[Man(a1-3)]Man(a1-6)[Man(a1-2)Man(a1-2)Man(a1-3)]Man(b1-4)GlcNAc(b1-4)GlcNAc
# Procedure, shortened: as §1
# [37] = biological target: Man(a1-3)[Man(a1-6)]Man
# Procedure, shortened: as §1
binder,measurement,setting,value
"DC-Sign (Homo sapiens), Q9NNX6 (protein) MSDSKEPRLQQLGLLEEEQLRGLGFRQTRGYKSLAGCLGHGPLVLQLLSFTLLAGLLVQVSKVPSSISQEQSRQDAIYQNLTQLKAAVGELSEKSKLQEIYQELTQLKAAVGELPEKSKLQEIYQELTRLKAAVGELPEKSKLQEIYQELTWLKAAVGELPEKSKMQEIYQELTRLKAAVGELPEKSKQQEIYQELTRLKAAVGELPEKSKQQEIYQELTRLKAAVGELPEKSKQQEIYQELTQLKAAVERLCHPCPWEWTFFQGNCYFMSNSQRNWHDSITACKEVGAQLVVIKSAEEQNFLQLQSSRSNRFTWMGLSDLNQEGTWQWVDGSPLLPSFKQYWNRGEPNNVGEEDCAEFSGNGWNDDKCNLAKFWICKKSAASCSRDEEQFLSPAPATPNPPPA",glycan array binding signal (z-score),[1],-0.077
same,glycan array binding signal (z-score),[2],-0.193
same,glycan array binding signal (z-score),[3],-0.133
same,glycan array binding signal (z-score),[4],-0.145
same,glycan array binding signal (z-score),[5],-0.019
same,glycan array binding signal (z-score),[6],-0.014
same,glycan array binding signal (z-score),[7],-0.072
same,glycan array binding signal (z-score),[8],-0.145
same,glycan array binding signal (z-score),[9],-0.185
same,glycan array binding signal (z-score),[10],-0.139
same,glycan array binding signal (z-score),[11],-0.165
same,glycan array binding signal (z-score),[12],-0.101
same,glycan array binding signal (z-score),[13],-0.132
same,glycan array binding signal (z-score),[14],-0.109
same,glycan array binding signal (z-score),[15],-0.152
same,glycan array binding signal (z-score),[16],-0.174
same,glycan array binding signal (z-score),[17],-0.191
same,glycan array binding signal (z-score),[18],-0.125
same,glycan array binding signal (z-score),[19],-0.197
same,glycan array binding signal (z-score),[20],-0.146
same,glycan array binding signal (z-score),[21],-0.185
same,glycan array binding signal (z-score),[22],-0.114
same,glycan array binding signal (z-score),[23],-0.188
same,glycan array binding signal (z-score),[24],-0.144
same,glycan array binding signal (z-score),[25],-0.167
same,glycan array binding signal (z-score),[26],-0.1
same,glycan array binding signal (z-score),[27],-0.175
same,glycan array binding signal (z-score),[28],-0.101
same,glycan array binding signal (z-score),[29],4.51
same,glycan array binding signal (z-score),[30],-0.123
same,glycan array binding signal (z-score),[31],1.28
same,glycan array binding signal (z-score),[32],8.32
same,glycan array binding signal (z-score),[33],0.069
same,glycan array binding signal (z-score),[34],-0.156
same,glycan array binding signal (z-score),[35],0.027
same,glycan array binding signal (z-score),[36],0.25
same,glycan array binding signal (z-score),[37],-0.113
